# Values joined by “and” are separate entries in the source; they are usually repeats but may differ in a detail not shown here. Equal entries are not always repeated. Among all 360,000 compounds or so, about 25,000 (6.9%) were called active. The shares of active, inactive and inconclusive entries below differ from those in the screen. Calls come from the whole dose curve; as a rule, active = well fitted inhibition curve with a large enough effect; inconclusive = small, poorly fitted or top-dose-only effect; inactive = flat fitted curve, though single readings scatter. Potencies beside an inconclusive call are fits to weak or partial responses and may not hold up.
# Target: Luciferin 4-monooxygenase (Photinus pyralis) (UniProt P08659)
# UniProt P08659, sequence (P08659 whole entry, looked up): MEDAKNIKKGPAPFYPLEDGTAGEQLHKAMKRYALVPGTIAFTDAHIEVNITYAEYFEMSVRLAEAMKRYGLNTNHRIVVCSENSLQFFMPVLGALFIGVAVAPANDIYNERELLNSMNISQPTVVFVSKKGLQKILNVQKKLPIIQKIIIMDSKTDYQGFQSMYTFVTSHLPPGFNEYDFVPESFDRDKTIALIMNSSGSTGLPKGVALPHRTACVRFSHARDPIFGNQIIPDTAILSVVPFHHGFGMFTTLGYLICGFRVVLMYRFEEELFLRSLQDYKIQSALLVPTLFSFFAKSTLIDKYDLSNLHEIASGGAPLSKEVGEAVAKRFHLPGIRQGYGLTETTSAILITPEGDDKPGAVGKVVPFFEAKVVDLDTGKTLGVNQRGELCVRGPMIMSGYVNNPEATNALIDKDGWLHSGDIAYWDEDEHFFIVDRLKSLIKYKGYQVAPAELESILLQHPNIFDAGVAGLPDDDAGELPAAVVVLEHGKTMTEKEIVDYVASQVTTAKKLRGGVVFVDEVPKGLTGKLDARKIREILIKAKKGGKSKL
# Test: qHTS profiling assay for firefly luciferase inhibitor/activator using purifed enzyme and Km concentrations of substrates (counterscreen for miR-21 project); note: nearly all actives have a fitted effect of over 55% in size
# Conditions: purified FLuc, luminescence inhibition; series mostly up to 57.5 µM
# Summary of the method: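 Biochemical qHTS of compounds, final roughly 60 µM downward over six points, against 10 nM purified firefly luciferase using Km concentrations of substrates (10 uM D-luciferin, 10 uM ATP) in Tris acetate pH 7.5 buffer; luminescence output.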
# Potency is the fitted concentration of half-maximal effect; tags give direction and shape of the fitted curve.
row,Structure (SMILES),Potency
1,CNC(=O)Oc1ccc(-c2cn3cc(Cl)ccc3n2)cc1,active: 1.07 µM
2,CCc1c(C)c2ccc(OCC(N)=O)cc2oc1=O,"inconclusive: 26.9 µM [inhibitor, single point]"
3,CCCCCn1c(=O)c(C(=O)NCc2ccccc2)c(O)c2ccccc21,inactive
4,Cc1ccc(Cn2cccc(C(=O)Nc3ccc(C)c(Cl)c3)c2=O)cc1,inactive
5,O=C1NC(=O)C(=Cc2ccsc2)C(=O)N1,"inconclusive: 15.1 µM [inhibitor, partial curve, poor fit]"
6,O=C1NC(=O)N(c2ccc3c(c2)OCO3)C(=O)/C1=C/c1ccsc1,active: 19 µM
7,CC(=O)c1ccc(NC(=O)c2cc(CC(C)C)on2)cc1,"inconclusive: 7.57 µM [inhibitor, full curve]"
8,COc1ccc(C2CC(=O)Oc3c2c(=O)oc2ccccc32)c(OC)c1OC (stereo not drawn),"inconclusive: 16.9 µM [inhibitor, partial curve, poor fit]"
9,Cc1c(C)c2ccc(OCC(=O)N3CCC[C@@H]3C(=O)O)c(C)c2oc1=O,"inconclusive: 30.1 µM [inhibitor, partial curve, poor fit]"
10,O=C(Cc1c(O)c2ccccc2oc1=O)c1ccc(F)cc1,active: 3.01 µM
11,COc1cccc(CN2CCc3nc(N4CCN(c5ncccn5)CC4)ncc3C2)c1,"inconclusive: 23.9 µM [inhibitor, partial curve, poor fit]"
12,Cc1c(C(=O)N2CCC3(CC2)OCCO3)sc2ncnc(N3CCc4ccccc4C3)c12,"inconclusive: 37.9 µM [inhibitor, partial curve, poor fit]"
13,COc1ccccc1N1C(=O)NC(=O)/C(=C/c2ccc([N+](=O)[O-])s2)C1=O,"inconclusive: 37.9 µM [inhibitor, single point]"
14,C/C(=N\NC(=O)c1ccccc1)c1c(O)n(C2CCCCC2)c(=O)[nH]c1=O,"inconclusive: 30.1 µM [inhibitor, partial curve, poor fit]"
15,O=C(c1ccco1)c1cn(Cc2ccccc2)c2ccccc12,"inconclusive: 19 µM [inhibitor, partial curve]"
16,C=CCSc1nnc(NC(=O)c2ccc(Cl)nc2)s1,"inconclusive: 15.1 µM [inhibitor, partial curve]"
17,COc1ccc(C(=O)C2CCCN(Cc3cnc(C)s3)C2)c(OC)c1 (stereo not drawn),"inconclusive: 26.9 µM [inhibitor, partial curve, poor fit]"
18,Cc1cc(C(=O)Nc2ccc3c(c2)OCCO3)nn1C(C)(C)C,active: 7.57 µM
19,Cc1ccc(/C=C2\C(=O)NC(=S)N(c3ccccc3F)C2=O)s1,"inconclusive: 26.9 µM [inhibitor, partial curve]"
20,CC1=NN(c2ccccc2)C(=O)/C1=C/c1c(O)[nH]c(=S)[nH]c1=O,"inconclusive: 23.9 µM [inhibitor, single point]"
21,O=C(CSc1nnc(NC(=O)c2ccccc2F)s1)NCc1ccc(F)cc1,active: 12 µM

row,Structure (SMILES),Potency
1,Cc1oc2cc3oc(=O)c(CCC(=O)N4CCCCC4)c(C)c3cc2c1C,"inconclusive: 12 µM [inhibitor, partial curve]"
2,CN1/C(=C\C=C\C2=[N+](C)c3ccc4ccccc4c3C2(C)C)C(C)(C)c2ccccc21,active: 13.5 µM
3,CCc1ccc(NC(=O)Cn2c(=O)oc3cc(S(=O)(=O)NCc4ccccc4)ccc32)cc1,"inconclusive: 21.3 µM [inhibitor, partial curve, poor fit]"
4,COc1ccccc1N1C(=O)NC(=O)/C(=C/c2ccc3c(c2)Cc2ccccc2-3)C1=O,"inconclusive: 37.9 µM [inhibitor, partial curve, poor fit]"
5,COc1ccc(-c2cc(=NCCC(=O)O)c3cc(C)ccc3o2)cc1,active: 13.5 µM
6,COc1ccc(C(=O)NCc2cc3ccccc3n2C)cc1,"inconclusive: 26.9 µM [inhibitor, partial curve]"
7,OC(c1ccccc1)(c1ccccc1)C1CCCN1 (stereo not drawn),active: 12 µM
8,O=C(Nc1ncc(Cc2ccccc2)s1)C1=NCCN1,"inconclusive: 33.8 µM [inhibitor, partial curve, poor fit]"
9,CCc1c(C(=O)NN2C(=O)C3C4CCC(O4)C3C2=O)csc1C (stereo not drawn),"inconclusive: 16.9 µM [inhibitor, partial curve, poor fit]"
10,Cc1ccc(C(=O)N2CCc3cc(CNC(=O)c4ccnn4C)ccc32)cc1,"inconclusive: 37.9 µM [inhibitor, partial curve, poor fit]"
11,Cc1ccc(NC(=O)C2CCN(C(=O)c3cnn(-c4ccccc4)c3-n3cccc3)CC2)cc1Cl,"inconclusive: 8.49 µM [inhibitor, partial curve, poor fit]"
12,CCCCn1c(N)c(C(=O)OCC2CCCO2)c2nc3ccccc3nc21 (stereo not drawn),"inconclusive: 19 µM [inhibitor, partial curve, poor fit]"
13,COc1ccc2nc(N3CCN(C(=O)CS(=O)(=O)c4ccc(C)cc4)CC3)sc2c1,active: 4.78 µM
14,O=C(CSc1nc(-c2ccc(Cl)cc2)[nH]c(=O)n1)Nc1cccc(Cl)c1,"inconclusive: 37.9 µM [inhibitor, single point]"
15,NS(=O)(=O)c1ccc(N=Nc2c(O)[nH]c(=S)[nH]c2=O)cc1,"inconclusive: 30.1 µM [inhibitor, partial curve, poor fit]"
16,CCCc1nnc(NC(=O)CCC(=O)N2CCN(CCOC(c3ccccc3)c3ccccc3)CC2)s1,inactive
17,CN(C)C(=O)Oc1ccc(OCc2nc3ccccc3[nH]2)cc1,active: 1.51 µM
18,CC12CC[C@H]3[C@@H](CCC4(O)C[C@H](O)CCC34/C=N/NC(=O)c3ccc(O)cc3)C1(O)CCC2C1=CC(=O)OC1 (stereo partly drawn),active: 19 µM
19,Cn1c(O)c(C2=NN(C(=O)CCl)C(c3ccccc3)C2)c(=O)n(C)c1=O (stereo not drawn),"inconclusive: 21.3 µM [inhibitor, partial curve, poor fit]"
20,c1ccc(Nc2ccc(Nc3ccccc3)cc2)cc1,"inconclusive: 8.49 µM [inhibitor, single point]"
21,CCCC(C)c1nnc(NC(=O)CCS(=O)(=O)c2ccccc2)s1 (stereo not drawn),"inconclusive: 15.1 µM [inhibitor, partial curve, poor fit]"

row,Structure (SMILES),Potency
1,O=C(N/N=C/c1c(O)n(-c2ccccc2)c(=S)[nH]c1=O)c1ccccc1,"inconclusive: 13.5 µM [inhibitor, partial curve]"
2,CNCCc1c(C)n[nH]c1C,inactive
3,Cc1cc(C)nc(OC(=O)c2ccc(Cl)cc2Cl)n1,"inconclusive: 26.9 µM [inhibitor, partial curve, poor fit]"
4,Cc1ccc(Cl)cc1NC(=O)Cn1c(=O)oc2cc(S(=O)(=O)N3CCCCCC3)ccc21,"inconclusive: 37.9 µM [inhibitor, partial curve, poor fit]"
5,CC(=O)c1ccc(NC(=O)c2sc3nc4c(cc3c2N)N2CCC4CC2)cc1,"inconclusive: 13.5 µM [inhibitor, partial curve, poor fit]"
6,O=C(O)c1nn(Cc2ccc(Cl)cc2Cl)c2ccccc12,"inconclusive: 33.8 µM [inhibitor, single point]"
7,CCCCN1C(=O)/C(=C/C=C/c2ccco2)C(=O)NC1=S,"inconclusive: 21.3 µM [inhibitor, partial curve, poor fit]"
8,CCn1nc(-c2ccccc2)nc2c(=O)n(C)c(=O)nc1-2,"inconclusive: 26.9 µM [inhibitor, single point]"
9,COc1ccc(CCCc2nnc(SCC(=O)Nc3ccc(C)c(C)c3)o2)cc1,"inconclusive: 30.1 µM [inhibitor, partial curve, poor fit] and inconclusive: 16.9 µM [inhibitor, partial curve, poor fit]"
10,O=C(c1cc2cc3ccc(Cl)cc3nc2o1)N1CCC2(CC1)OCCO2,"inconclusive: 12 µM [inhibitor, partial curve]"
11,Cc1ccc(N/N=C/c2c(O)n(-c3ccccc3)c(=O)[nH]c2=O)cc1,"inconclusive: 37.9 µM [inhibitor, partial curve, poor fit]"
12,Cc1ccc2scc(N3CCN(C)CC3)c(=O)c2c1,active: 12 µM
13,COc1ccc(N2C(=O)NC(=O)/C(=C\c3cn(CC(=O)N4CCOCC4)c4ccccc34)C2=O)c(OC)c1,"inconclusive: 37.9 µM [inhibitor, partial curve, poor fit]"
14,CCOC(=O)c1c(C)n(C(C)C)c2ccc(OC(=O)c3ccc(N4C(=O)CCC4=O)cc3)cc12,"inconclusive: 21.3 µM [inhibitor, partial curve, poor fit]"
15,CN1CCN2c3ccc(N)cc3CC3(C(=O)NC(=O)NC3=O)C2C1 (stereo not drawn),"inconclusive: 37.9 µM [inhibitor, single point]"
16,CN1C(=O)c2ccccc2Sc2ccc(C(=O)N3CCC4(CC3)OCCO4)cc21,inactive
17,Nc1ccccc1C(=O)OCc1ccc([N+](=O)[O-])cc1,"inconclusive: 13.5 µM [inhibitor, partial curve, poor fit]"
18,CCNC(=O)O/N=C(\C)c1sc(-c2ccccc2)nc1C,"inconclusive: 26.9 µM [inhibitor, partial curve]"
19,CC1=NN(c2ccccc2)C(=O)C1/C=C1\C(=O)NC(=O)N(c2ccc(C)c(C)c2)C1=O (stereo not drawn),active: 15.1 µM
20,CN(C(=O)Oc1ccc(Cl)c2cccnc12)c1ccccc1,inactive
21,CCN(CC)c1ccc(CC2C(=O)N(C)C(=O)N(C)C2=O)cc1,"inconclusive: 30.1 µM [inhibitor, single point]"
